Assay results from PMC4534575, “The RNA Helicase DHX34 Activates NMD by Promoting a Transition from the Surveillance to the Decay-Inducing Complex” (Cell Reports, 2014).
Numbering of substitutions follows the chain as printed. No constants are given. Whether binding was seen depends on the method and setting. In cells and extracts the contact can be indirect. Some entries that bind do so weakly or less than the wild type. For some assays here: Tags and fused reporters may be left off the sequences shown.

Amino acid sequences for entries named in this document (tags omitted).
UniProt Q96Q15: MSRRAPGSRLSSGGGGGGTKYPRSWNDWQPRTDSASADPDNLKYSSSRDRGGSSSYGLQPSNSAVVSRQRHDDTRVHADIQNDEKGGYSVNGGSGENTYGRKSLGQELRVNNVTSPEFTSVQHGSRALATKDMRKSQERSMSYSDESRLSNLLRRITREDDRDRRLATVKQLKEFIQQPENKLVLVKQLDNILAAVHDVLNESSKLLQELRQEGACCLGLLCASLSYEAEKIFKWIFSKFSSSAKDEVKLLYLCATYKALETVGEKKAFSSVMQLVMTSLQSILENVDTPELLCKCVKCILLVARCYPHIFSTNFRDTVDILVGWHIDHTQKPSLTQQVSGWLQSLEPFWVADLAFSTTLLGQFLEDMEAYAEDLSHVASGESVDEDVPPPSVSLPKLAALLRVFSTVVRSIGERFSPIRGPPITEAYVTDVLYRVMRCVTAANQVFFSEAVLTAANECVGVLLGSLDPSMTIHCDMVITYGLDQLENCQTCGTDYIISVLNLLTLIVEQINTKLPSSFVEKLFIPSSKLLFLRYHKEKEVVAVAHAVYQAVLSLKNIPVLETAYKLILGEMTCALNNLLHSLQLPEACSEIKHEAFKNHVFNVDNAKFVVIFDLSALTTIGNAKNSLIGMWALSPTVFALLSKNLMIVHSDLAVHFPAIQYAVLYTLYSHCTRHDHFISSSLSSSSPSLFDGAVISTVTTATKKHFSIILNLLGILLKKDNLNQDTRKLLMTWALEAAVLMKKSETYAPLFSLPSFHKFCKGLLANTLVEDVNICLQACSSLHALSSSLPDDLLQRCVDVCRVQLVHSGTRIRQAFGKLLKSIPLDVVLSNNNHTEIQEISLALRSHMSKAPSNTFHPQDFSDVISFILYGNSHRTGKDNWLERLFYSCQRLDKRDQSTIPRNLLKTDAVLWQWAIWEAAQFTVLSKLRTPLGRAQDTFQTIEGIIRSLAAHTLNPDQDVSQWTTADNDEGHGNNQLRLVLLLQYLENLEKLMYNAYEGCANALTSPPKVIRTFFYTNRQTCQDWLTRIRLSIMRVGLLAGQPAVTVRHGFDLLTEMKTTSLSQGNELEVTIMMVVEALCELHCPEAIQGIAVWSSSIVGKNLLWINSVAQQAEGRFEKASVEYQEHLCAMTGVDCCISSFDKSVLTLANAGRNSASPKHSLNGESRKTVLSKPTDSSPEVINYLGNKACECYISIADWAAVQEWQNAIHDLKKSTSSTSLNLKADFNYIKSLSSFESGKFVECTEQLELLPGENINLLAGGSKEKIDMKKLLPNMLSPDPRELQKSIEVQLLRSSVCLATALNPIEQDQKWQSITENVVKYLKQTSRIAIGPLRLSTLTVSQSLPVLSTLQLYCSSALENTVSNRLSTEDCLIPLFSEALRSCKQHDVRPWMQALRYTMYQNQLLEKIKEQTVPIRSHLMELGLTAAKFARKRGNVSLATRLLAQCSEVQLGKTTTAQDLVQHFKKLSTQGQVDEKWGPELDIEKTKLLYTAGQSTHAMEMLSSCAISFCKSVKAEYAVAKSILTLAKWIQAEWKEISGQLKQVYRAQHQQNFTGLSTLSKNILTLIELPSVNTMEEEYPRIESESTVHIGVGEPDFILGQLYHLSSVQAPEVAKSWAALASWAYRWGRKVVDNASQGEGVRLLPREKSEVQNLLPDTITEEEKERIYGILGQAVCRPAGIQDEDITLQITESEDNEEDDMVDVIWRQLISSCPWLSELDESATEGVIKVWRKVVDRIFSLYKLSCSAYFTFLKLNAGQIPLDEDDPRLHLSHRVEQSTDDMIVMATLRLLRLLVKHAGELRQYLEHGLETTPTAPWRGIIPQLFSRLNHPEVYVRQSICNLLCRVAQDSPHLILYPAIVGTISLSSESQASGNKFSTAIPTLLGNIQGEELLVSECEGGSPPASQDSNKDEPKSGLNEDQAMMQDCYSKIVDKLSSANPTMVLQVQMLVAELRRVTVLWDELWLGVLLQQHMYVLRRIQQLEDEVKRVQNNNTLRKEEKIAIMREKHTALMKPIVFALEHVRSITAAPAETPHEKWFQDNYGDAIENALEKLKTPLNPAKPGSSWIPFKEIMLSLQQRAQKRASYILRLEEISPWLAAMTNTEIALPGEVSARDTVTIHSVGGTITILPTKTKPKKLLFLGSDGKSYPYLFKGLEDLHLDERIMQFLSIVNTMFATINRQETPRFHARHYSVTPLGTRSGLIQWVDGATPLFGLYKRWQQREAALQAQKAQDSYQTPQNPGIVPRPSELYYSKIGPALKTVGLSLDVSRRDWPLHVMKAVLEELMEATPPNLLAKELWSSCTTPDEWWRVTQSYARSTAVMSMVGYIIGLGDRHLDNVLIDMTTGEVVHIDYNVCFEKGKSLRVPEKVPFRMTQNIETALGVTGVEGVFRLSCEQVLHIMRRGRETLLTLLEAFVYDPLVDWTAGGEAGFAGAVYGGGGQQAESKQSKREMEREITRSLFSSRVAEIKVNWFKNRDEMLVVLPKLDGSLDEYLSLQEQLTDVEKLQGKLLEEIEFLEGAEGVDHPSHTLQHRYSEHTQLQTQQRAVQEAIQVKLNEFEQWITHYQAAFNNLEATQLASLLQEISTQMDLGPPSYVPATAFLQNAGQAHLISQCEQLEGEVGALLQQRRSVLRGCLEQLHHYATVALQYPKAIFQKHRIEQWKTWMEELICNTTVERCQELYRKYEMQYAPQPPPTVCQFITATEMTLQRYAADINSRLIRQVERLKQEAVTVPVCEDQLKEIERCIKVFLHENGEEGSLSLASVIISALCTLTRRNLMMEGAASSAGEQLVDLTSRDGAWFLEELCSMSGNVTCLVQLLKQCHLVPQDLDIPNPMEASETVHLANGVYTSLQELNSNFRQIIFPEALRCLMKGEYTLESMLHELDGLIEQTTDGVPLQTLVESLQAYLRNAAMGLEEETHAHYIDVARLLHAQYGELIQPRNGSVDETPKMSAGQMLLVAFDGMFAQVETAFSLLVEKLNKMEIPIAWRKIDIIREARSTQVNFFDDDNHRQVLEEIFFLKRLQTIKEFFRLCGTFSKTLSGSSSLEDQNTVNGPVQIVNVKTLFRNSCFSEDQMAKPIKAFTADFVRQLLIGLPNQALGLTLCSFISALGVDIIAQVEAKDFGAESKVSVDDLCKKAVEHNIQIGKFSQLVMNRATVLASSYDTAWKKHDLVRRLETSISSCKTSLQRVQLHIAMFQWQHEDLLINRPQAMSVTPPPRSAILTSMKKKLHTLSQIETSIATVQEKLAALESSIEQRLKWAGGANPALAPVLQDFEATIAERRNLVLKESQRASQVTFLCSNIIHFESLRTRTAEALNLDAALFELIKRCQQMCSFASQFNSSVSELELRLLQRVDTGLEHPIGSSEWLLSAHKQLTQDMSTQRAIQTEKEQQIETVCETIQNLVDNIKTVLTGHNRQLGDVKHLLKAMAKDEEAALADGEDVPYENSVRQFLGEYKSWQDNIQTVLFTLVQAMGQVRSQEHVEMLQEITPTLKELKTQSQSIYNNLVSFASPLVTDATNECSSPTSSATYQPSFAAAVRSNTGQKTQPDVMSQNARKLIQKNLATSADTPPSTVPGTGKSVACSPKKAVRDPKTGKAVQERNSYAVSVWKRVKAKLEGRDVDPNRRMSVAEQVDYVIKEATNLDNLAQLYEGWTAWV

What was measured:
T7-DHX34 D279A (human) = target: T1, T7-DHX34 D279A (human) (UniProt Q14147); experiment: co-IP; IP of transiently transfected T7-DHX34 (wild-type or mutants) from HEK293T lysate, in the presence of RNase A (Figure 3B); endogenous partners by western blot
T1 sequence: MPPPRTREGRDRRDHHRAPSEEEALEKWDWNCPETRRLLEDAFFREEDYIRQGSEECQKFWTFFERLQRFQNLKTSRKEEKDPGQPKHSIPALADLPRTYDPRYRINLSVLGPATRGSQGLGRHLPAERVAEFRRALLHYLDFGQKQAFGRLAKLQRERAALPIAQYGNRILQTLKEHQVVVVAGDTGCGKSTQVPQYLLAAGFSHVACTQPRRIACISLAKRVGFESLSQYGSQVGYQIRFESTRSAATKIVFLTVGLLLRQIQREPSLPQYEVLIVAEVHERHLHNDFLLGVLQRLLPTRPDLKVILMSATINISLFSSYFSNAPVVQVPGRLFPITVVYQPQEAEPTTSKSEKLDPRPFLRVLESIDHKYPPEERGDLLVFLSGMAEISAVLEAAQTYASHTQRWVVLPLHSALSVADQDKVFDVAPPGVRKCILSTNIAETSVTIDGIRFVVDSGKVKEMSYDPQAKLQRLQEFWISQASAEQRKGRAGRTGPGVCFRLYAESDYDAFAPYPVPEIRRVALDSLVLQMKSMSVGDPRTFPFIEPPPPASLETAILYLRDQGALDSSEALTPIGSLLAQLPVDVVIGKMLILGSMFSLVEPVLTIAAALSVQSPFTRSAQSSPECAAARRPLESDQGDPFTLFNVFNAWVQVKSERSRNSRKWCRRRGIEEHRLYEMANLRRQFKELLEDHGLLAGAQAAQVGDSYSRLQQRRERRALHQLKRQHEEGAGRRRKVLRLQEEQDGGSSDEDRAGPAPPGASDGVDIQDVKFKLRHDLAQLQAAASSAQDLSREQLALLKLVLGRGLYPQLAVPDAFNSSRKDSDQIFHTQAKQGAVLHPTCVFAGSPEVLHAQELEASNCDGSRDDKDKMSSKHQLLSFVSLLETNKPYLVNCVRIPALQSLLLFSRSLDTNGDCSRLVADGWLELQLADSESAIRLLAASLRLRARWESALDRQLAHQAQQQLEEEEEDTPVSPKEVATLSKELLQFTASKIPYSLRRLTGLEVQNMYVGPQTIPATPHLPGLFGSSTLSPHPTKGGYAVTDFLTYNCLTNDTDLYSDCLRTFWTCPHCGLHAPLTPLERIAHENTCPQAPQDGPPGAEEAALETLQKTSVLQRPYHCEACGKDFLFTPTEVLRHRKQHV

FLAG-DHX34 (human) = target: T2, FLAG-DHX34 (human) (UniProt Q14147); experiment: co-IP; anti-FLAG IP of transiently transfected FLAG-DHX34 from HEK293T lysate, in the absence or presence of RNase A; endogenous partners by western blot
T2 sequence: T1 sequence with A279D

Question: What does the source list for SMG1 (from UniProt Q96Q15 1-3661)?
Answer: binding (T7-DHX34 D279A (human)): binds; binding (FLAG-DHX34 (human)): binds
